Screen size: about 1,300 compounds; about 150 (12%) were called active. Not shown: some 30% with an inconclusive outcome. The call rests on the fitted dose curve; in most records, active means well fitted cell-killing curve with a large enough effect; inconclusive means small, poorly fitted or top-dose-only effect, or effect the other way; inactive means flat fitted curve, though single readings scatter. Only a part is listed here, and it is no random draw.
On the % scale 0 is the no-effect control and ±100 the full control effect; potency means the concentration at half of the fitted maximal effect.

This assay can be described thus: qHTS of small molecules that selectively kill Giardia lamblia: Hit Validation in HepG2 cytotox.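 Further: compound exposure lasted overnight at 37 deg C; nearly all actives have a fitted effect of over 55% in size.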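 On activity change, negative = cytotoxicity: viability measured as cellular ATP by ATPLite luminescence.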 The settings on record: cell viability; Potency: HepG2 cytotoxicity; series mostly up to 38.3 µM; activity change, negative = cytotoxicity: at the top concentration. Put shortly: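 Counterscreen cytotoxicity: ATPLite luminescence (15 min, room temperature) measured in HepG2 cells exposed overnight at 37 deg C to pin-transferred compound (23 nL) after overnight pre-incubation.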
Take `CC(=O)Nc1ccc(S(=O)(=O)NCCC(=O)N2CCN(c3ccccc3Cl)CC2)cc1`: the “activity change, negative = cytotoxicity” value was inactive: 2.36%.

With `CN(C)S(=O)(=O)c1cccc(C(=O)NCCNC(=O)c2cccc(S(=O)(=O)N(C)C)c2)c1`, the “activity change, negative = cytotoxicity” value was inactive: 23.1%.

As for `CCCCOc1ccc(C(=O)NCC(=O)NCCCn2nc(C)cc2C)cc1`, the “activity change, negative = cytotoxicity” value is inactive: 8.77%.

Turning to `CN(C)c1nc(=Nc2cccc(Cl)c2)ss1`, the “activity change, negative = cytotoxicity” value is inactive: 19.8%.

Regarding `Cc1cc(C)cc(N=c2c([N+](=O)[O-])nn(-c3cccc(Cl)c3)n2O)c1`, the “activity change, negative = cytotoxicity” value is inactive: 17.1%.

Turning to `COc1cc(-c2noc(C)c2C(=O)NCC[C@@H]2CCCN2C)cc(OC)c1OC`, the “activity change, negative = cytotoxicity” value is inactive: 12.6%.

Regarding `CN(C)C(=O)CCc1ccc2c3c([nH]c2c1)[C@]1(CCC2CCCC2)[C@@H](C(=O)N2CCOCC2)C[C@H](CC(=O)NCCN2CCOCC2)C(=O)N1CC3`, the “activity change, negative = cytotoxicity” value was inactive: -10.8%.

On to `CC1(C)N=c2ccc([N+](=O)[O-])c(N)c2=[N+]1[O-]`, for which the “activity change, negative = cytotoxicity” value is inactive: 3.92%.

Turning to `C=Cc1ccc(CN2CCCN(Cc3ccc(F)cc3)S2(=O)=O)cc1`, the “activity change, negative = cytotoxicity” value was inactive: 0.795%.

Consider `COc1ccccc1C(=O)NC(=O)OCCn1c(C)cnc1[N+](=O)[O-]`, for which the “activity change, negative = cytotoxicity” value is inactive: 13.5%.

Consider `CCCc1nc2c(=O)n(C)c(=O)nc-2n(C)n1`, for which the Potency is active: 8.26 µM.

`O=C(COc1cccnc1[N+](=O)[O-])NCc1cccs1`: the “activity change, negative = cytotoxicity” value is inactive: 7.57%.

Take `Cc1ccc(C(CC(=O)O)NC(=O)c2ccc(S(=O)(=O)N3CC(C)OC(C)C3)cc2)cc1` (configuration not stated): the “activity change, negative = cytotoxicity” value is inactive: 16%.

With `Cc1c[nH]c(=O)c([N+](=O)[O-])c1`, the “activity change, negative = cytotoxicity” value was inactive: 10.6%.

`C=CCOC(=O)C1=C(C)NC(=O)NC1c1ccc(O)cc1` (configuration not stated): the “activity change, negative = cytotoxicity” value was inactive: 13.7%.

`COc1ccc(-n2c(C)cc(C(=O)COc3ccc(C)nc3[N+](=O)[O-])c2C)cc1`: the “activity change, negative = cytotoxicity” value is inactive: 0.437%.

In the case of `COC(=O)[C@]1(Cc2ccccc2)N[C@H](CN(C)C(=O)c2ccccc2)[C@@H]2C(=O)N(C)C(=O)[C@@H]21`, the “activity change, negative = cytotoxicity” value is inactive: 1.6%.

In the case of `COc1ccc(NC(=O)C(c2ccc(Cl)cc2)C(C)C)cn1` (configuration not stated), the “activity change, negative = cytotoxicity” value is inactive: -1.05%.

Consider `O=[N+]([O-])c1nn(-c2ccc3c(c2)OCCO3)n(O)c1=Nc1ccc(Cl)cc1`, for which the “activity change, negative = cytotoxicity” value was inactive: 20.9%.

For `CC1CC(C)C(=O)C(C(CC2CC(=O)NC(=O)C2)OC(=O)CC(=O)c2ccccc2)C1` (configuration not stated), the “activity change, negative = cytotoxicity” value was inactive: -10.7%.

Regarding `CC(Nc1nc(N2CCN(CCO)CC2)nc2ccccc12)c1ccccc1` (configuration not stated), the “activity change, negative = cytotoxicity” value was inactive: -23.6%.

Regarding `COc1ccc(/C(O)=C2/C(=O)C(=O)N(CCCN3CCOCC3)C2c2ccc(N(C)C)cc2)cc1` (configuration not stated), the “activity change, negative = cytotoxicity” value was inactive: 3.67%.

For `Cc1cc(=O)oc2cc(O)c(N=Nc3ccccc3)cc12`, the “activity change, negative = cytotoxicity” value was inactive: -10.3%.

On to `Cc1ccc(CN=c2c([N+](=O)[O-])nn(-c3ccc4c(c3)OCCO4)n2O)cc1`, for which the “activity change, negative = cytotoxicity” value was inactive: 14%.

For the compound `COc1ccc(Cn2ccnc2SCC(=O)NC2CCCC2)cc1`, the “activity change, negative = cytotoxicity” value is inactive: 4.25%.

`O=C(c1ccc([N+](=O)[O-])o1)N1CCc2ccccc21`: the “activity change, negative = cytotoxicity” value was inactive: 7.1%.

As to `CN(C(=O)c1cccc(NC(=O)Cc2ccc(NC(=O)C3CCN(C(=O)c4ccccc4)CC3)cc2)c1)C1CC1`, the “activity change, negative = cytotoxicity” value was inactive: 1.58%.

As for `CC(=O)OCCSc1c(-c2ccccc2)c2cc(Cl)ccc2[nH]c1=O`, the “activity change, negative = cytotoxicity” value was inactive: 8.14%.

Regarding `COc1cc(/C=C/c2ccc3cccc(OC)c3n2)c(O)c([N+](=O)[O-])c1`, the “activity change, negative = cytotoxicity” value is inactive: -0.206%.

As for `O=C(NCC1CCN(Cc2ccccc2F)CC1)Nc1ccccc1F`, the “activity change, negative = cytotoxicity” value is inactive: 0.581%.

For `Cc1ccc2c(c1)c1nc3ccccc3nc1n2C`, the “activity change, negative = cytotoxicity” value is inactive: -4.9%.

As for `CCS(=O)(=O)N1Cc2ccccc2CC1C(=O)Nc1ccccc1OC` (configuration not stated), the “activity change, negative = cytotoxicity” value is inactive: 13.5%.

Take `Cc1ccc(Nc2cc(C)nc3c(C)ccc([N+](=O)[O-])c23)cc1`: the “activity change, negative = cytotoxicity” value is inactive: 10.4%.

Consider `O=C(Nc1ccc2oc(-c3ccncc3)nc2c1)c1ccc([N+](=O)[O-])o1`, for which the Potency was active: 16.5 µM.

As for `O=c1c([N+](=O)[O-])cc(C(F)(F)F)cn1Cc1cccc(Cl)c1`, the “activity change, negative = cytotoxicity” value is inactive: -7.8%.

`O=C1c2ccc3c4c(ccc(c24)C(=O)N1CCCCO)C(=O)N(CCCCO)C3=O`: the Potency is active: 4.14 µM.

As for `CN(Cc1ccccc1)C(=O)c1ccc(NC(=O)Cc2cccc(NC(=O)C3CCN(C(=O)C4CC4)CC3)c2)cc1`, the “activity change, negative = cytotoxicity” value was inactive: -0.472%.

Consider `Cc1ccc(-c2c(C(=O)N/N=C/C3CC=CCC3)nnn2-c2nonc2N)cc1` (configuration not stated), for which the “activity change, negative = cytotoxicity” value was inactive: 0.041%.

In the case of `COc1ccc(C(CNC(=O)c2oc3cc(Br)ccc3c2C)N2CCCCC2)cc1` (configuration not stated), the “activity change, negative = cytotoxicity” value was inactive: -8.83%.

On to `Cc1ccc([C@@H]2CC=C(C(=O)O)[C@H](c3cccc(Cl)c3)N2S(=O)(=O)c2ccc(C)cc2)cc1`, for which the “activity change, negative = cytotoxicity” value was inactive: 3.04%.

In the case of `O=C(O)c1cccc(NC(=S)NC(NC(=O)c2ccccc2[N+](=O)[O-])C(Cl)(Cl)Cl)c1` (configuration not stated), the “activity change, negative = cytotoxicity” value was inactive: 5.99%.

`Cc1cnc([N+](=O)[O-])n1CCOC(=O)NC(=O)c1ccc(F)cc1`: the “activity change, negative = cytotoxicity” value was inactive: -4.24%.

On to `CC(NC(=O)C12CC3CC(CC(C3)C1)C2)C(=O)NN=Cc1ccc([N+](=O)[O-])o1` (configuration not stated), for which the “activity change, negative = cytotoxicity” value is inactive: -23.4%.

In the case of `O=C(O)c1cc(Cl)c(Cl)cc1C(=O)N1CCCC1`, the “activity change, negative = cytotoxicity” value is inactive: 16.5%.

Regarding `COc1cccc(CNCc2cccc(Br)c2)c1OC`, the “activity change, negative = cytotoxicity” value was inactive: -14.9%.

`CC(C)C(=O)NC(=S)Nc1ccc(S(=O)(=O)N2CCCC2)cc1`: the “activity change, negative = cytotoxicity” value is inactive: 2.66%.

As to `Cc1cc(C(=O)COc2cccnc2[N+](=O)[O-])c(C)n1-c1ccccc1F`, the “activity change, negative = cytotoxicity” value was inactive: 6.02%.

`Cc1ncc([N+](=O)[O-])n1CCO`: the Potency result is “inactive”.

For the compound `COc1ccc(NS(=O)(=O)c2ccc(S(=O)(=O)N(C)C)cc2)cc1S(N)(=O)=O`, the “activity change, negative = cytotoxicity” value is inactive: -5.52%.

For the compound `COc1ccc(N(Cc2ccccc2)C(=O)OC(C)(C)C)c(C(=O)N(C)OC)c1`, the “activity change, negative = cytotoxicity” value is inactive: 1.61%.

Turning to `COc1cc(/C=C2\COC/C(=C\c3cc(OC)c(OC)c(OC)c3)C2=O)cc(OC)c1OC`, the Potency is active: 2.33 µM.

Consider `CCc1cc(=O)oc2cc(C)cc(OCC(=O)NC3CCN(Cc4ccccc4)CC3)c12`, for which the “activity change, negative = cytotoxicity” value is inactive: 4.04%.

`COc1ccc(CNC(=O)COc2cccnc2[N+](=O)[O-])cc1OC`: the “activity change, negative = cytotoxicity” value is inactive: 6.39%.

For `O=C(NCc1ccco1)NC(=O)c1csc([N+](=O)[O-])c1`, the “activity change, negative = cytotoxicity” value was inactive: 10.6%.

On to `Cc1cc(C(=O)CCC(=O)NC(C)c2ccc(S(N)(=O)=O)cc2)c(C)s1` (configuration not stated), for which the “activity change, negative = cytotoxicity” value was inactive: 2.81%.

For the compound `CCOC(=O)c1nc(C(=O)NCc2ccc(C)cc2)nc2ccccc12`, the “activity change, negative = cytotoxicity” value was inactive: 18.3%.

For the compound `Cc1ccc(C(=O)c2c3ccc([N+](=O)[O-])cc3[n+]([O-])n2CCCC(N)=O)cc1`, the “activity change, negative = cytotoxicity” value was inactive: -12.8%.

In the case of `CCn1cc(C(=O)NCCC(C)C)c(=O)c2cc(F)c(N3CCN(C(=O)c4ccco4)CC3)cc21`, the “activity change, negative = cytotoxicity” value is inactive: -29.2%.

Consider `O=[N+]([O-])c1ccc(-c2nc(C(Cl)Cl)c3ccccc3n2)cc1`, for which the “activity change, negative = cytotoxicity” value is inactive: 16.9%.

On to `O=C(O)C1CCN(c2ccc([N+](=O)[O-])cc2[N+](=O)[O-])CC1`, for which the “activity change, negative = cytotoxicity” value is inactive: 14.6%.

Consider `CCCSc1nc2c(c(=O)n1CC)SC(C)C2` (configuration not stated), for which the “activity change, negative = cytotoxicity” value is inactive: 1.45%.

Consider `O=C(NCc1ccccc1CN1CCCC1)c1cccc(S(=O)(=O)N2CCCC2)c1`, for which the “activity change, negative = cytotoxicity” value was inactive: 2.58%.
